Measurements published in PMC4561382, “Aven recognition of RNA G-quadruplexes regulates translation of the mixed lineage leukemia protooncogenes”.
Results are given in words; binding and its absence hold for the method and conditions named. Binding seen in cells or lysates may run through a third protein. Some results given as binding are weak or reduced against the parent protein; the word gives no strength. For some assays here: Tags and fused reporters may be left off the sequences shown. Values belong to the molecule of their own block, whether it stands above or below them.

Amino acid sequences for entries named in this document (tags omitted). A change or cut given only in a name is not applied to a line headed by its entry. Residues count along the entry.
UniProt Q9H7E2: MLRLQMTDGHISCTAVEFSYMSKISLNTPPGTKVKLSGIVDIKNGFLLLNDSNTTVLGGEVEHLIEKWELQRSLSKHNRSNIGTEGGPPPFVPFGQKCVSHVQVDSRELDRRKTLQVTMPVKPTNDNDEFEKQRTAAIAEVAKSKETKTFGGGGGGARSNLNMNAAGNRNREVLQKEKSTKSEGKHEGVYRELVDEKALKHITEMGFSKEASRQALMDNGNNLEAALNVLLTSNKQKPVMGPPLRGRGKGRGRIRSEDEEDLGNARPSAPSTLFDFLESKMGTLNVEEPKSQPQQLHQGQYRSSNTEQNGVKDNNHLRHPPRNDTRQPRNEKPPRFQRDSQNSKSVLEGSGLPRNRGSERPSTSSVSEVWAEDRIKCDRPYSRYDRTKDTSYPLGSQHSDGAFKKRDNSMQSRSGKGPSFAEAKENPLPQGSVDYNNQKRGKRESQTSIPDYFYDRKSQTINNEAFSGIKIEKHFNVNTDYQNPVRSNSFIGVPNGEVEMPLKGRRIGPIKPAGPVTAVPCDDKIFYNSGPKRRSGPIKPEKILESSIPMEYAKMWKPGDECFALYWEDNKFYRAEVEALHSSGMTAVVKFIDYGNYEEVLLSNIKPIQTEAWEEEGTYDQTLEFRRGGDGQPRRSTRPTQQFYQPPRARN
GST-TDRD3 Tudor domain: residues 555-615 of Q9H7E2
UniProt Q16637: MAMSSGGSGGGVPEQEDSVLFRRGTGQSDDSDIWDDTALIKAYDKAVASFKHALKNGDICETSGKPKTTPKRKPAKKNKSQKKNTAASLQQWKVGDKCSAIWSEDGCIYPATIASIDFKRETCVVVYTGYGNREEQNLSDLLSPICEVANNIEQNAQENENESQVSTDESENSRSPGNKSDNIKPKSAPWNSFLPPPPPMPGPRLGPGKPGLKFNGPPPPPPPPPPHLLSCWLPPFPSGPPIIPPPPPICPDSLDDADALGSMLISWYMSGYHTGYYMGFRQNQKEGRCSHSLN
GST-SMN Tudor domain: residues 91-151 of Q16637
UniProt P97801: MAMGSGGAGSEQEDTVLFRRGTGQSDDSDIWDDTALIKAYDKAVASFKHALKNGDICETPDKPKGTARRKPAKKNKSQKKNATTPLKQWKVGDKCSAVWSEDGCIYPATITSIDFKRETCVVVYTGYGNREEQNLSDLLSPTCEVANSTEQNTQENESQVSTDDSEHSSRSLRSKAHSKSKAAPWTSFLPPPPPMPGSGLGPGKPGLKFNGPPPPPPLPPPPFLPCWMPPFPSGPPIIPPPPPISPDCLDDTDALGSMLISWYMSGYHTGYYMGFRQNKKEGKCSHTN

Columns and labels:
[1] = target: T1, FLAG-AvenΔRGG (human Aven lacking amino acids 1-73) (human) (UniProt Q9NQS1); experiment: co-IP; anti-FLAG immunoprecipitation of lysates of cells transfected with pcDNA3.1, FLAG-Aven or FLAG-AvenΔRGG; endogenous TDRD3, SMN or DHX36 by immunoblot; also FLAG-Aven with siControl or siPRMT1; lysis buffer 20 mM Tris pH 7.4, 150 mM NaCl, 1 mM EDTA, 1 mM EGTA, 1% Triton X-100
T1 sequence: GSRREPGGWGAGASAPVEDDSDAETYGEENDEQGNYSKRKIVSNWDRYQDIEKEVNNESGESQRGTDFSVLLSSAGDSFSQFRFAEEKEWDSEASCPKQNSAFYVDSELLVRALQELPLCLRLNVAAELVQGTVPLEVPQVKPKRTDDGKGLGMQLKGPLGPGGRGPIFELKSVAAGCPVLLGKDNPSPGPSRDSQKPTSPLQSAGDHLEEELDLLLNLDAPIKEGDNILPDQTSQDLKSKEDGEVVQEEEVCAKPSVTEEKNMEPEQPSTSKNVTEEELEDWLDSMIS

[2] = target: T2, FLAG-Aven (full-length human Aven) (human) (UniProt Q9NQS1); experiment: as above
T2 sequence (chain, methylarginines in the N-terminus (recognised by ASYM25b)): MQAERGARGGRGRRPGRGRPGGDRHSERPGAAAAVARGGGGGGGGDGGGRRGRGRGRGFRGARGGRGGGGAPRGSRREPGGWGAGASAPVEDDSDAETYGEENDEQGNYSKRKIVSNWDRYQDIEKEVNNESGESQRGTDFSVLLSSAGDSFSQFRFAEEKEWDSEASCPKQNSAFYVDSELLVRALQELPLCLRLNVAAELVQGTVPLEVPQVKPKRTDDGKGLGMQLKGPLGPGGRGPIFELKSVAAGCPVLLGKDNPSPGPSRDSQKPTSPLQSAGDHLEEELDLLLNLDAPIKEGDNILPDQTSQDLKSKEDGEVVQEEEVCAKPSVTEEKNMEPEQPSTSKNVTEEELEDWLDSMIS

[3] = target: T3, Aven, endogenous (mouse embryo fibroblasts) (mouse (endogenous in MEFs)) (UniProt Q9D9K3); experiment: co-IP; anti-Aven immunoprecipitation of lysates of untreated (vehicle) PRMT1^FL/-;CreERT MEFs; immunoblot with anti-SMN and anti-TDRD3
T3 sequence (chain, asymmetrically dimethylated by PRMT1 (ASYM25b) in untreated cells): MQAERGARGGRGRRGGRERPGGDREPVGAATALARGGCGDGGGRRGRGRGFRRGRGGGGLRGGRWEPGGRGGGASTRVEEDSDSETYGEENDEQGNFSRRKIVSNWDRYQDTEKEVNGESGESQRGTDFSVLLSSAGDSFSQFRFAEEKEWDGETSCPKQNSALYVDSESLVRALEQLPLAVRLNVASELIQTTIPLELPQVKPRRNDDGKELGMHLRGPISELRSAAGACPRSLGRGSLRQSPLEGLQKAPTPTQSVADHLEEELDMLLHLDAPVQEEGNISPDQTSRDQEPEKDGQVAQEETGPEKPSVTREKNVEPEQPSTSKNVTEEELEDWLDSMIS

[4] = target: T3, Aven, endogenous (mouse embryo fibroblasts) (mouse (endogenous in MEFs)); experiment: condition: only PRMT1-deficient MEFs (+OHT for 6 days); co-IP; anti-Aven immunoprecipitation of lysates of PRMT1^FL/-;CreERT MEFs treated with OHT for 6 days (PRMT1-deficient); immunoblot with anti-SMN and anti-TDRD3
GST-TDRD3 Tudor domain = GST-TDRD3 Tudor domain (UniProt Q9H7E2); experiment: pull-down; 1 µg purified GST-Tudor protein on glutathione agarose incubated 1 hr at 4°C with lysates of transfected cells (U2OS in text and methods, HEK293T in the legend); washed three times with lysis buffer; anti-FLAG immunoblot; only the target purified
GST-SPF30 Tudor domain = target: T4, GST-SPF30 Tudor domain (UniProt O75940); experiment: as above
T4 sequence: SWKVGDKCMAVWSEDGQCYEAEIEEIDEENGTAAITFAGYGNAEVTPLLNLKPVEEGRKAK

GST-SMN Tudor domain = GST-SMN Tudor domain (UniProt Q16637); experiment: as above

- binding [3]: binds
- binding [4]: no binding
Molecule: SMN, endogenous (mouse embryo fibroblasts) (from UniProt P97801 1-288)

- binding [1]: no binding
- binding [2]: binds
Molecule: TDRD3, endogenous (human cells) (from UniProt Q9H7E2 1-651)

- binding (GST-TDRD3 Tudor domain): binds
- binding (GST-SPF30 Tudor domain): binds weakly
- binding (GST-SMN Tudor domain): binds
B2: FLAG-Aven (full-length human Aven) (protein, UniProt Q9NQS1 1-362)
chain: T2 sequence (chain, methylarginines in the N-terminus (recognised by ASYM25b))
modifications: methylarginines in the N-terminus (recognised by ASYM25b)

The next lines start with the molecule.

Molecule: SMN, endogenous (human cells) (from UniProt Q16637 1-294)
- binding [1]: no binding
- binding [2]: binds

Molecule: TDRD3, endogenous (mouse embryo fibroblasts) (from UniProt Q91W18 1-743)
- binding [3]: binds
- binding [4]: no binding

B1: FLAG-AvenΔRGG (human Aven lacking amino acids 1-73) (domain or fragment, UniProt Q9NQS1 74-362)
chain: T1 sequence
- binding (GST-TDRD3 Tudor domain): no binding
- binding (GST-SPF30 Tudor domain): no binding
- binding (GST-SMN Tudor domain): no binding
